{"source": "paper PMC6919601", "about": "“Identification of Plasmodium dipeptidyl aminopeptidase allosteric inhibitors by high throughput screening” (PLoS ONE, 2019)", "note": "The campaign covered roughly 110,000 compounds. About 230 (0.21%) showed an effect of 50% or more. The list shows a part of the results.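 Note: 30 min substrate incubation versus DMSO and 10 µM JCP410 controls.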", "data": [{"target": "DPAP1 (Plasmodium falciparum, UniProt Q8IIJ9)", "sequence (Q8IIJ9 whole entry, looked up)": "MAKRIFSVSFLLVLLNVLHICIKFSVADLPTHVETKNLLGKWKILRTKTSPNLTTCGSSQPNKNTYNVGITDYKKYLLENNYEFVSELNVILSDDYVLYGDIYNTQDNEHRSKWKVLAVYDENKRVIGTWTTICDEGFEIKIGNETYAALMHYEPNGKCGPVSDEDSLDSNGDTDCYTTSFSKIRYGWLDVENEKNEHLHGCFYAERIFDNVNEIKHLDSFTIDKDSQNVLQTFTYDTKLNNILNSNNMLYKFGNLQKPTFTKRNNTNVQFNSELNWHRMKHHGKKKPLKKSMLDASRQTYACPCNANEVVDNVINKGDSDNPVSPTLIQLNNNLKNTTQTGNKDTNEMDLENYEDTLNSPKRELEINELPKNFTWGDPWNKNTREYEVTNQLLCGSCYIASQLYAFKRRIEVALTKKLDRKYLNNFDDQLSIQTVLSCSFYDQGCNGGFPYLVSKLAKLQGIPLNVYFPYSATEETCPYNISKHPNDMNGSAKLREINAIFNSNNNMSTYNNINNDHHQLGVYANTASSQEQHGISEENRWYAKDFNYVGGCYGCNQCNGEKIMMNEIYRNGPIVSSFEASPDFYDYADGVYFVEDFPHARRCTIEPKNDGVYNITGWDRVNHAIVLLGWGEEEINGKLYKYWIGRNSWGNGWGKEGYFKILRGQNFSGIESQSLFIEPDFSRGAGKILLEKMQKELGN", "assay": "primary screen, percent inhibition; read by cleavage of a fluorogenic dipeptide substrate; higher = more effect of the substance", "design": "species or system P. falciparum D10 trophozoite lysates; single well", "units": {"% Inhibition @ 10 uM": "%"}, "values": [{"smiles": "CN1C2=C(C(=O)CCC2)C(c2ccc(O)cc2)C2=C1CCCC2=O", "% Inhibition @ 10 uM": 6.58}, {"smiles": "CCNC(=O)c1cc(-c2cccc(Br)c2)nc2ccccc12", "% Inhibition @ 10 uM": 4.96}, {"smiles": "CC1CC(C)CN(C(=O)C(C)n2sc3ccccc3c2=O)C1", "note": "(stereo not drawn)", "% Inhibition @ 10 uM": -4.09}, {"smiles": "O=C(Nc1ccccc1)c1cccc(S(=O)(=O)N2CCC(Cc3ccccc3)CC2)c1", "% Inhibition @ 10 uM": 1.67}, {"smiles": "COc1ccc(-c2nc(-c3ccc(-n4cccc4)cc3)no2)cc1", "% Inhibition @ 10 uM": 4.19}, {"smiles": "Cc1cc(-c2noc(COc3c(F)c(F)cc(F)c3F)n2)c2ccccc2n1", "% Inhibition @ 10 uM": -2.91}, {"smiles": "CCN(CC)C(=O)CN(c1cc(C)ccc1C)S(=O)(=O)c1ccc(C)cc1", "% Inhibition @ 10 uM": -8.67}, {"smiles": "CCOC(=O)C1=C(CN2CCC(C)CC2)NC(=O)NC1c1ccc(OC)cc1", "note": "(stereo not drawn)", "% Inhibition @ 10 uM": -5.95}, {"smiles": "CCC1CCCCN1CCCNC(=O)Cn1cc2c(n1)-c1c(oc(C(=O)N3CCCC3)c1C)CC2", "note": "(stereo not drawn)", "% Inhibition @ 10 uM": 5.43}, {"smiles": "COc1ccc(/C=C(\\NC(=O)c2ccco2)C(=O)N2CCCCC2)cc1", "% Inhibition @ 10 uM": 0.611}, {"smiles": "COCc1cc(C)nc2sc(C(=O)O)c(-n3cccc3)c12", "% Inhibition @ 10 uM": -1.36}, {"smiles": "Cc1cc(C(=O)O)ccc1-c1ccc(/C=C2\\SC(=O)N(CC(=O)N3CCCC3)C2=O)o1", "% Inhibition @ 10 uM": 7.78}, {"smiles": "Cn1nc(C(=O)NCc2ccc3c(c2)OCO3)c2c1-c1ccccc1S(=O)(=O)C2", "% Inhibition @ 10 uM": -3.8}, {"smiles": "CCCCNC(=O)CN(C)S(=O)(=O)c1ccc(Cl)cc1", "% Inhibition @ 10 uM": -0.185}, {"smiles": "COc1ccc(C(=O)CSC2=C(C#N)C(c3ccco3)C(C(=O)Nc3ccccc3)=C(C)N2)cc1", "note": "(stereo not drawn)", "% Inhibition @ 10 uM": -3.26}, {"smiles": "CCN(CC)CCOCCOc1ccccc1", "% Inhibition @ 10 uM": 2.5}, {"smiles": "CC1CCN(S(=O)(=O)c2ccc3c(ccn3CC(=O)NCCc3cccs3)c2)CC1", "% Inhibition @ 10 uM": -2.74}, {"smiles": "CCCN(CCC)CCNC(=O)Cc1c(C(=O)O)[nH]c2ccccc12", "% Inhibition @ 10 uM": -2.74}, {"smiles": "CCOC(=O)N1CCN(S(=O)(=O)c2cc(OC)ccc2OC)CC1", "% Inhibition @ 10 uM": 1.67}, {"smiles": "C#CCOc1ccc(C(c2ccc(OCC#C)cc2)(C(F)(F)F)C(F)(F)F)cc1", "% Inhibition @ 10 uM": 7.77}, {"smiles": "CC(=O)N1N=C(c2ccco2)CC1c1ccco1", "note": "(stereo not drawn)", "% Inhibition @ 10 uM": 3.65}, {"smiles": "COc1ccc(CN2CCN(c3cccc(C(F)(F)F)c3)CC2)cc1O", "% Inhibition @ 10 uM": -5.57}, {"smiles": "O=C(O)CCCNC(=O)CNc1c2ccccc2nc2ccccc12", "% Inhibition @ 10 uM": 15.7}, {"smiles": "Cc1onc(-c2c(Cl)cccc2Cl)c1C(=O)N1CC(C)OC(C)C1", "note": "(stereo not drawn)", "% Inhibition @ 10 uM": -6.69}, {"smiles": "NC(=O)NC(c1ccccc1)c1ccc(Cl)cc1Cl", "note": "(stereo not drawn)", "% Inhibition @ 10 uM": 3.44}, {"smiles": "CCO/C(O)=C1\\C(C)=NC2(O)CC1C1COC2O1", "note": "(stereo not drawn)", "% Inhibition @ 10 uM": 3.44}, {"smiles": "CN1CCN(c2c(S(=O)(=O)c3ccccc3)cnc3ccc(F)cc23)CC1", "% Inhibition @ 10 uM": -5.37}, {"smiles": "C=CCN(Cc1nc(-c2ccc(OC)cc2)no1)S(=O)(=O)c1ccc(Br)cc1", "% Inhibition @ 10 uM": -4.54}, {"smiles": "Cc1sc(NC(=O)C2CCCO2)c(C(N)=O)c1C", "note": "(stereo not drawn)", "% Inhibition @ 10 uM": -0.436}, {"smiles": "O=C(Cn1c(SCc2ccccc2F)nc2ccncc21)NCc1ccco1", "% Inhibition @ 10 uM": 4.22}, {"smiles": "CCOc1ccc(/C=C/C(=O)c2cc3cc(Cl)ccc3oc2=O)cc1OC", "% Inhibition @ 10 uM": 2.73}, {"smiles": "CC12CN3CC(C)(CN(C1)C3c1ccco1)C2", "note": "(stereo not drawn)", "% Inhibition @ 10 uM": -1.82}, {"smiles": "CN1CCN(c2nc(-c3ccc(OC4(C(=O)NCC#N)CCCCC4)cc3)cs2)CC1", "% Inhibition @ 10 uM": -4.72}, {"smiles": "Fc1ccccc1-n1ncc2c1ncn1nc(-c3ccncc3)nc21", "% Inhibition @ 10 uM": -4.64}, {"smiles": "COc1ccc(CN2CCN(c3ccc(F)cc3)CC2)cc1O", "% Inhibition @ 10 uM": -4.35}, {"smiles": "COc1ccccc1CCNCc1c(C(=O)O)n(Cc2ccc(F)cc2)c2cc(C)ccc12", "% Inhibition @ 10 uM": 2.56}, {"smiles": "CCCOc1cc(C)c(S(=O)(=O)n2cnc3ccccc32)cc1C", "% Inhibition @ 10 uM": -1.11}, {"smiles": "Nc1ccccc1C(=O)N1CCCCCC1", "% Inhibition @ 10 uM": 1.34}, {"smiles": "COc1ccc(C2NC(=O)NC(C)=C2C(=O)OCCC(C)C)cc1", "note": "(stereo not drawn)", "% Inhibition @ 10 uM": -11.2}, {"smiles": "CC1(C)CC(=O)C2=C(C1)NC(=O)CC2c1cccc(Oc2ccccc2)c1", "note": "(stereo not drawn)", "% Inhibition @ 10 uM": -9.42}, {"smiles": "Cc1ccc(-c2cn3cc(-c4ccc(Br)cc4)nc3n2C)cc1", "% Inhibition @ 10 uM": -1.11}, {"smiles": "COc1ccc(CN2CCN(Cc3ccc(Cl)cc3)CC2)cc1", "% Inhibition @ 10 uM": -2.58}, {"smiles": "CCOc1ccccc1C1CC(=O)Nc2c1c(=O)n(C)c(=O)n2C", "note": "(stereo not drawn)", "% Inhibition @ 10 uM": -4.16}, {"smiles": "O=C(CCN1CCOCC1)Nc1c(O)nc2ccc(Br)cc2c1-c1ccccc1", "% Inhibition @ 10 uM": -2.92}, {"smiles": "COc1ccc(/C(O)=C/C=N/c2ccc(C)c(C)c2)cc1OC", "% Inhibition @ 10 uM": -2.24}, {"smiles": "CC(C)C[C@@H](C(=O)NCC#N)c1cccc(-c2cccc(N3CCNCC3)c2)c1", "% Inhibition @ 10 uM": -4.72}, {"smiles": "C/N=c1\\c(NC(=O)CC23CC4CC(CC(C4)C2)C3)c(O)oc2ccccc12", "% Inhibition @ 10 uM": 25.1}, {"smiles": "O=C(O)c1ccc(C(=O)c2ccc(Oc3ccc(C(=O)O)c(C(=O)O)c3)cc2)c(C(=O)O)c1", "% Inhibition @ 10 uM": 3.32}, {"smiles": "CCC(CO)NS(=O)(=O)c1cc(-c2nnc(OC)c3ccccc23)ccc1C", "note": "(stereo not drawn)", "% Inhibition @ 10 uM": -0.85}, {"smiles": "CCN(CC)C(=O)c1ccc(COc2ccc(Cl)c(C)c2)o1", "% Inhibition @ 10 uM": 1.92}, {"smiles": "CCC(C)NC(=O)CCc1c(C)nc2c3c(C)cc(C)nc3nn2c1C", "note": "(stereo not drawn)", "% Inhibition @ 10 uM": -0.72}, {"smiles": "Cc1cccc(CN2CCN(C/C=C/c3ccccc3)CC2)c1", "% Inhibition @ 10 uM": 3.1}, {"smiles": "CCC(Oc1ccccc1)C(=O)N1CCN(C(c2ccccc2)c2ccccc2)CC1", "note": "(stereo not drawn)", "% Inhibition @ 10 uM": 0.177}, {"smiles": "CC(C)Oc1ccccc1-c1cc(C(=O)O)c2ccccc2n1", "% Inhibition @ 10 uM": -9.68}, {"smiles": "CCOC(=O)N1CCN(CC(O)COCc2cc(OC)c(OC)c(OC)c2)CC1", "note": "(stereo not drawn)", "% Inhibition @ 10 uM": 15.9}, {"smiles": "COc1ccc(C2(CNC(=O)c3ccc(F)cc3)CCCC2)cc1OC", "% Inhibition @ 10 uM": 3.95}, {"smiles": "O=C1C2C3C=C(Cl)C(c4ccccc43)C2C(=O)N1c1cccc(Br)c1", "note": "(stereo not drawn)", "% Inhibition @ 10 uM": -5.07}, {"smiles": "Cc1ccc(NC(=O)CSc2ncn(-c3ccccc3)n2)cc1C", "% Inhibition @ 10 uM": -0.545}, {"smiles": "Cc1[nH]c(-c2ccco2)nc1C12CC3CC(CC(C3)C1)C2", "% Inhibition @ 10 uM": -2.44}, {"smiles": "c1ccc(C2CCC(NCCN3CCOCC3)CC2)cc1", "note": "(stereo not drawn)", "% Inhibition @ 10 uM": -3.27}, {"smiles": "C=C(C)CN(CC)C1CCN(C)CC1", "% Inhibition @ 10 uM": 1.08}, {"smiles": "Cc1cc(NC(=O)c2cc3c(Cl)nc4ccccc4c3s2)no1", "% Inhibition @ 10 uM": 3.06}, {"smiles": "CCOC(=O)C1=C(C)NC(=O)NC1c1cc(Br)ccc1OC", "note": "(stereo not drawn)", "% Inhibition @ 10 uM": -2.28}]}]}
